In all, about 33,000 sequences were measured (“E-score (dimensionless, -0.5 to 0.5)”: median about -0.058, highest 2% from about 0.35 on). The list shows a part of the results.
Each sequence was assayed on MvaT (assay: PBM 8-mer E-score (mean of HK and ME arrays) (E-score (dimensionless, -0.5 to 0.5)); higher = stronger relative binding preference; most listed sequences are background and not binding sites).
Description: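 Protein binding microarray: GST-tagged full-length MvaT (P. aeruginosa PAO1) bound to two universal double-stranded 60-mer arrays (ME and HK), each with a constant 25-mer primer and a variable 35-mer region covering all 8-mers. The 8-mer E-score (rank-based, range -0.5 to 0.5, >0.45 = specific binding) is the mean of the two arrays.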

| Sequence | PBM 8-mer E-score |
| --- | --- |
| AGTCCATC | -0.197 |
| GTCGCTTA | 0.0162 |
| GTGCCCTA | -0.297 |
| AATCCCAG | -0.071 |
| CTAGCGAC | -0.259 |
| TATCGGAA | 0.189 |
| ACCTGGCT | -0.195 |
| AACATGAC | 0.0169 |
| CGTCGCGA | -0.229 |
| GCAGTATA | 0.287 |
| GAGTACGA | -0.082 |
| GCCATGGA | -0.00887 |
| TCGGCTCA | -0.245 |
| CTATTTAA | 0.274 |
| ACTGCTCG | -0.127 |
| TAGGAATA | 0.197 |
| ACATAGCA | -0.0283 |
| AGTTAAGG | 0.135 |
| ATCGCGGG | -0.119 |
| AGTCTGAG | -0.0908 |
| CCAGTACG | -0.224 |
| GCAGAAGA | -0.0597 |
| AGACATAA | 0.164 |
| ATTTTATG | 0.234 |
| CTACGTGC | -0.135 |

| Sequence | PBM 8-mer E-score |
| --- | --- |
| CCGTATAG | -0.0465 |
| GTCTTTAA | 0.146 |
| GGTTGTAA | 0.141 |
| CCGAATGC | -0.127 |
| TCCTAGCA | -0.182 |
| TTCAAGAA | -0.0313 |
| CGGGCCGA | -0.202 |
| CTGCCAAG | -0.215 |
| AGAAAAAG | 0.0842 |
| GAAGGCCC | -0.379 |
| CCTTCCCG | -0.14 |
| GCGGGGAA | -0.103 |
| AGGGAAGC | -0.183 |
| TCGAGAAA | 0.0629 |
| AGTCAGGA | -0.0418 |
| CACTAAGA | 0.0784 |
| CGGGCCAA | -0.118 |
| ATCCTGTC | -0.176 |
| ATAGCTCA | -0.0497 |
| AACATAGT | 0.25 |
| GCATAAAC | 0.105 |
| CTAAGTAC | 0.0477 |
| AAGAGGAC | -0.0662 |
| CACATCAC | -0.0635 |
| AGCTGATA | 0.113 |

| Sequence | PBM 8-mer E-score |
| --- | --- |
| AAAAAGAC | 0.105 |
| TCAGACGA | -0.099 |
| CACCTTTC | -0.0352 |
| TCACCCGA | -0.148 |
| AGAGCAAT | -0.0516 |
| AAGAGCGG | -0.0342 |
| ATGGTCCC | -0.228 |
| CGGTACTC | -0.119 |
| GACATTGC | -0.0274 |
| ATATTTAA | 0.462 |
| CTGGGTGA | -0.218 |
| GCAACGCA | -0.168 |
| ATCGTAAA | 0.053 |
| GGCGTGTA | -0.134 |
| ACTTTTTA | 0.309 |
| AAGATAAC | 0.156 |
| TGCCCTAA | -0.201 |
| CGGTGTCC | -0.201 |
| ACGTAGCT | -0.0562 |
| GCAGCGCC | -0.366 |
| ACTGCTAT | 0.0955 |
| CACAGCAA | 0.133 |
| ACCGGTAT | 0.117 |
| CGACGTAA | -0.0197 |
| GTCCCCGA | -0.174 |

| Sequence | PBM 8-mer E-score |
| --- | --- |
| CGACTCAA | -0.0083 |
| ATCCTGAA | 0.0306 |
| AGACATCG | -0.159 |
| CGATTACA | 0.178 |
| ATGCCAAA | -0.0996 |
| CGGTAAAC | 0.0615 |
| AAGGTGGA | -0.0298 |
| AATGGCGC | 0.0067 |
| CGCTTTGA | -0.0139 |
| AGGGGACC | -0.235 |
| ATAATAAA | 0.451 |
| TACCATCA | -0.0879 |
| GGGTAAGA | -0.00473 |
| AACTCGCG | -0.0197 |
| CTAATACC | 0.167 |
| GCCTACTA | -0.023 |
| ATTAGTTG | 0.321 |
| ACTAGTCC | -0.0112 |
| ACGCTTAA | 0.22 |
| ACACCAGC | -0.13 |
| GCGCAAGC | -0.198 |
| ACTCGGTC | -0.211 |
| TAGACTCA | -0.0671 |
| CCATCACA | -0.0555 |
| CACGGATG | -0.225 |

| Sequence | PBM 8-mer E-score |
| --- | --- |
| AACTGATG | 0.0546 |
| GAACATTA | 0.276 |
| ATTGCCTG | 0.0246 |
| AGGGCCTG | -0.226 |
| CGAGTCTA | -0.126 |
| TCAAATCA | 0.116 |
| CAAGGGGA | -0.126 |
| AAAGGGTA | -0.0374 |
| AAGCGCCC | -0.118 |
| CTGCCCGA | -0.105 |
| AAAAACCT | 0.106 |
| AGTATTAG | 0.27 |
| CGGTGACC | -0.323 |
| AGCAACCA | 0.0355 |
| AAATCGGC | -0.0057 |
| ACTCACCT | -0.104 |
| GTTGCTCA | -0.0849 |
| GAGTTTCC | -0.216 |
| CGGGACAG | -0.151 |
| AGCGCCAA | -0.026 |
| GTTACCAA | 0.0154 |
| ACAGAGTC | -0.197 |
| AAAGAGCA | 0.000865 |
| ACGCGCGA | -0.00121 |
| AACTCATA | 0.144 |

| Sequence | PBM 8-mer E-score |
| --- | --- |
| AGTTATAT | 0.437 |
| CCGAGAGA | -0.211 |
| CGGACAGC | -0.207 |
| ACTCTAGG | -0.0989 |
| GAACTATA | 0.308 |
| GTACGAAA | 0.0985 |
| AGTTTTGA | 0.173 |
| AAATCTAA | 0.209 |
| CGGGGGGC | -0.256 |
| GGGCCCAA | -0.295 |
| CACGTGTC | -0.0855 |
| GGGATTGA | -0.0975 |
| ACTCTAAT | 0.277 |
| GATCCTCC | -0.202 |
| GCAGCAAA | -0.00143 |
| ACTCCAAC | 0.000945 |
| GTGCCAGA | -0.146 |
| GGCTCGAC | -0.248 |
| GCCTCACC | -0.237 |
| CAGTATGC | -0.115 |
| AGTGTAAA | 0.249 |
| TATCTCGA | 0.17 |
| CGCTTGGA | -0.206 |
| AGAGGCCT | -0.302 |
| AAGGTTGC | -0.221 |

| Sequence | PBM 8-mer E-score |
| --- | --- |
| ATCGATGG | 0.00882 |
| CGGTATAC | 0.173 |
| GGTATGCA | -0.0553 |
| CCATATTC | 0.161 |
| ATCAGCCC | -0.126 |
| CAATGTCC | -0.106 |
| ACCTTCGG | -0.338 |
| GCTATAAC | 0.13 |
| AGGAAGGC | -0.356 |
| GTGTTTCA | 0.0552 |
| AAAGGAAA | -0.203 |
| ATGTAACA | 0.293 |
| CTCGGCGA | -0.109 |
| GGGCCACC | -0.382 |
| CCCCACCC | -0.325 |
| CCCTACGC | -0.234 |
| CTTCAGAA | 0.00741 |
| GCCTGAAC | -0.184 |
| TCCGCGAA | -0.106 |
| AGAACTGC | -0.0868 |
| GACAGTTA | 0.204 |
| AGATCACG | -0.151 |
